This is an account of results in patent publication US20230278972A1, “SUBSTITUTED HALOALKYL SULFONANILIDE HERBICIDES” (FMC Corporation, priority 2020, published 2023).

Holding throughout (settings): Flood, 250 g ai/ha; visual rating after 13 to 15 days; scale of 0 to 100 where 0 is no effect and 100 is complete control
In test [1] the test system is rice (Oryza sativa). As to the kind of experiment: Test B flooded paddy test, rice.
In test [2] the test system is ducksalad (Heteranthera limosa). As to the kind of experiment: Test B flooded paddy test, ducksalad.
Test [3] deals with barnyardgrass (Echinochloa crus-galli). The test can be described thus: Test B flooded paddy test, barnyardgrass.
The test system of test [4] is sedge, umbrella (small-flower umbrella sedge, Cyperus difformis). As to the kind of experiment: Test B flooded paddy test, sedge, umbrella.

`Cc1cc(C)c(-c2cc(C(C)C)nn(C)c2=O)cc1NS(=O)(=O)C(F)(F)F` [Compound 41]: the “Plant response rating, Rice” value in test [1] is 5. Besides, the “Plant response rating, Ducksalad” value in test [2] turned out to be 20. Also, the “Plant response rating, Barnyardgrass” value in test [3] turned out to be 0. For the same compound, the “Plant response rating, Sedge, Umbrella” value in test [4] is recorded as 75.
The matching figures for `Cc1cc(C)c(N(S(=O)(=O)C(F)(F)F)S(=O)(=O)C(F)(F)F)cc1-c1cn(C)c(=O)n(C)c1=O` [Compound 42]: 15, 15, 0 and 75.
The matching figures for `CCn1cc(-c2cc(N(S(=O)(=O)C(F)(F)F)S(=O)(=O)C(F)(F)F)c(C)cc2C)c(=O)n(CC)c1=O` [Compound 43]: 20, 25, 20 and 25.
The like results for `CCn1cc(-c2cc(NS(=O)(=O)C(F)(F)F)c(C)cc2C)c(=O)n(CC)c1=O` [Compound 44] were, in that order, 0, 0, 0 and 0.
As to `CCn1nc(Cl)cc(-c2cc(N(S(C)(=O)=O)S(=O)(=O)C(F)(F)F)c(C)cc2C)c1=O` [Compound 45], the “Plant response rating, Rice” value in test [1] is 0. Also, the “Plant response rating, Ducksalad” value in test [2] is reported as 25. The “Plant response rating, Barnyardgrass” value in test [3] is on record as 10. Further, in test [4], the “Plant response rating, Sedge, Umbrella” value turned out to be 90.
For the compound `Cc1cc(C)c(N(S(C)(=O)=O)S(=O)(=O)C(F)(F)F)cc1-c1cc(Cl)nn(C)c1=O` [Compound 46], the “Plant response rating, Rice” value in test [1] was found to be 0. In addition, the “Plant response rating, Ducksalad” value in test [2] is recorded as 50. In test [3], the “Plant response rating, Barnyardgrass” value turned out to be 0. In addition, in test [4], the “Plant response rating, Sedge, Umbrella” value was found to be 90.
As for `Cc1cc(C)c(N(S(=O)(=O)C(F)(F)F)S(=O)(=O)C(F)(F)F)cc1-c1cc(C(C)C)nn(C)c1=O` [Compound 47], the “Plant response rating, Rice” value in test [1] is 15. The “Plant response rating, Ducksalad” value in test [2] amounted to 0. Further, the “Plant response rating, Barnyardgrass” value in test [3] came out at 0. In test [4], the “Plant response rating, Sedge, Umbrella” value is on record as 80.
Regarding `COC(=O)C1CCN(C(=O)c2cc(NS(=O)(=O)C(F)(F)F)c(C)cc2C)CC1` [Compound 50], the “Plant response rating, Rice” value in test [1] was found to be 0. Besides, the “Plant response rating, Ducksalad” value in test [2] is listed as 0. Further, in test [3], the “Plant response rating, Barnyardgrass” value was 0. The “Plant response rating, Sedge, Umbrella” value in test [4] is given as 0.
For `CCn1nc(Cl)cc(-c2cc(NS(=O)(=O)C(F)(F)F)c(C)cc2C)c1=O` [Compound 51], the “Plant response rating, Rice” value in test [1] came out at 0. Moreover, the “Plant response rating, Ducksalad” value in test [2] worked out at 0. Besides, in test [3], the “Plant response rating, Barnyardgrass” value is 0. The “Plant response rating, Sedge, Umbrella” value in test [4] stood at 65.
For `CCn1nc(C)cc(-c2cc(N(S(=O)(=O)C(F)(F)F)S(=O)(=O)C(F)(F)F)c(C)cc2C)c1=O` [Compound 52], the “Plant response rating, Rice” value in test [1] was 0. Besides, the “Plant response rating, Ducksalad” value in test [2] worked out at 0. For the same compound, in test [3], the “Plant response rating, Barnyardgrass” value is 0. Besides, the “Plant response rating, Sedge, Umbrella” value in test [4] stood at 70.
Consider `COC(=O)N(c1cc(-c2ccnn(C)c2=O)c(C)cc1C)S(=O)(=O)C(F)(F)F` [Compound 53], for which, in test [1], the “Plant response rating, Rice” value came to 0. The “Plant response rating, Ducksalad” value in test [2] was determined as 0. The “Plant response rating, Barnyardgrass” value in test [3] is 0. The “Plant response rating, Sedge, Umbrella” value in test [4] is listed as 0.
As to `COc1cnn(-c2cc(NS(=O)(=O)C(F)(F)F)c(C)cc2C)c(=O)c1` [Compound 54], the “Plant response rating, Rice” value in test [1] was 0. Also, the “Plant response rating, Ducksalad” value in test [2] amounted to 0. In test [3], the “Plant response rating, Barnyardgrass” value is 0. In addition, the “Plant response rating, Sedge, Umbrella” value in test [4] is on record as 0.
`CCn1nccc(-c2cc(NS(=O)(=O)C(F)(F)F)c(C)cc2F)c1=O` [Compound 55]: the “Plant response rating, Rice” value in test [1] is on record as 0. The “Plant response rating, Ducksalad” value in test [2] was determined as 45. Also, the “Plant response rating, Barnyardgrass” value in test [3] is 0. In addition, in test [4], the “Plant response rating, Sedge, Umbrella” value is on record as 80.
As for `CC(=O)N(c1cc(-c2ccnn(C)c2=O)c(C)cc1C)S(=O)(=O)C(F)(F)F` [Compound 56], in test [1], the “Plant response rating, Rice” value worked out at 75. In test [2], the “Plant response rating, Ducksalad” value was 20. The “Plant response rating, Barnyardgrass” value in test [3] was found to be 40. Moreover, the “Plant response rating, Sedge, Umbrella” value in test [4] turned out to be 90.
The matching figures for `Cc1cc(C)c(-c2ccnn(CC(F)(F)F)c2=O)cc1NS(=O)(=O)C(F)(F)F` [Compound 57]: 25, 30, 15 and 85.
The like results for `CCCn1nccc(-c2cc(NS(=O)(=O)C(F)(F)F)c(C)cc2C)c1=O` [Compound 58] were, in that order, 0, 0, 0 and 0.
With `Cc1ccc(-c2ccnn(C)c2=O)cc1NS(=O)(=O)C(F)(F)F` [Compound 59], in test [1], the “Plant response rating, Rice” value came out at 0. Besides, the “Plant response rating, Ducksalad” value in test [2] was found to be 0. For the same compound, the “Plant response rating, Barnyardgrass” value in test [3] is listed as 0. Also, the “Plant response rating, Sedge, Umbrella” value in test [4] is given as 0.
As for `COc1ccnn(-c2cc(NS(=O)(=O)C(F)(F)F)c(C)cc2C)c1=O` [Compound 60], the “Plant response rating, Rice” value in test [1] amounted to 0. In addition, the “Plant response rating, Ducksalad” value in test [2] came to 0. Besides, the “Plant response rating, Barnyardgrass” value in test [3] amounted to 0. For the same compound, the “Plant response rating, Sedge, Umbrella” value in test [4] is 0.
Turning to `Cc1cc(C)c(N(S(=O)(=O)C(F)(F)F)S(=O)(=O)C(F)(F)F)cc1-c1cc(C(F)(F)F)nn(C)c1=O` [Compound 61], in test [1], the “Plant response rating, Rice” value was 0. In addition, in test [2], the “Plant response rating, Ducksalad” value is given as 0. For the same compound, the “Plant response rating, Barnyardgrass” value in test [3] is 0. Moreover, the “Plant response rating, Sedge, Umbrella” value in test [4] was found to be 0.
Regarding `Cc1cc(-c2cc(NS(=O)(=O)C(F)(F)F)c(C)cc2C)c(=O)n(C)n1` [Compound 62], the “Plant response rating, Rice” value in test [1] was 0. In test [2], the “Plant response rating, Ducksalad” value was 30. For the same compound, the “Plant response rating, Barnyardgrass” value in test [3] was determined as 0. Also, the “Plant response rating, Sedge, Umbrella” value in test [4] is recorded as 50.
Consider `Cc1cc(F)c(-c2ccnn(C)c2=O)cc1NS(=O)(=O)C(F)(F)F` [Compound 63], for which, in test [1], the “Plant response rating, Rice” value turned out to be 0. For the same compound, in test [2], the “Plant response rating, Ducksalad” value stood at 15. In addition, the “Plant response rating, Barnyardgrass” value in test [3] is 0. Besides, the “Plant response rating, Sedge, Umbrella” value in test [4] is 75.
As for `COc1c(Cl)nn(C)c(=O)c1-c1cc(NS(=O)(=O)C(F)(F)F)c(C)cc1C` [Compound 64], the “Plant response rating, Rice” value in test [1] turned out to be 0. Moreover, the “Plant response rating, Ducksalad” value in test [2] was 0. For the same compound, the “Plant response rating, Barnyardgrass” value in test [3] is on record as 0. Moreover, the “Plant response rating, Sedge, Umbrella” value in test [4] is 0.
Turning to `COc1cnn(C)c(=O)c1-c1cc(NS(=O)(=O)C(F)(F)F)c(C)cc1C` [Compound 65], the “Plant response rating, Rice” value in test [1] is on record as 0. Further, in test [2], the “Plant response rating, Ducksalad” value is listed as 0. Also, in test [3], the “Plant response rating, Barnyardgrass” value is given as 0. Moreover, the “Plant response rating, Sedge, Umbrella” value in test [4] is 0.
Turning to `Cc1ccc(-c2ccnn(C)c2=O)cc1N(S(=O)(=O)C(F)(F)F)S(=O)(=O)C(F)(F)F` [Compound 66], the “Plant response rating, Rice” value in test [1] worked out at 20. Further, the “Plant response rating, Ducksalad” value in test [2] came to 20. Moreover, in test [3], the “Plant response rating, Barnyardgrass” value is listed as 35. In test [4], the “Plant response rating, Sedge, Umbrella” value worked out at 90.
`Cc1cc(C)c(N(S(=O)(=O)C(F)(F)F)S(=O)(=O)C(F)(F)F)cc1-c1cc(Br)nn(C)c1=O` [Compound 67]: the “Plant response rating, Rice” value in test [1] is 0. The “Plant response rating, Ducksalad” value in test [2] was 15. Moreover, the “Plant response rating, Barnyardgrass” value in test [3] is recorded as 0. Besides, the “Plant response rating, Sedge, Umbrella” value in test [4] is 85.
For `CCn1nc(C)cc(-c2cc(NS(=O)(=O)C(F)(F)F)c(C)cc2C)c1=O` [Compound 68], in test [1], the “Plant response rating, Rice” value stood at 55. In addition, the “Plant response rating, Ducksalad” value in test [2] was determined as 15. In test [3], the “Plant response rating, Barnyardgrass” value is 35. The “Plant response rating, Sedge, Umbrella” value in test [4] is recorded as 75.
The matching figures for `Cc1cc(C)c(-c2cc(Br)nn(C)c2=O)cc1NS(=O)(=O)C(F)(F)F` [Compound 69]: 15, 15, 15 and 90.
The like results for `COc1cc(-c2cc(NS(=O)(=O)C(F)(F)F)c(C)cc2C)c(=O)n(C)n1` [Compound 70] were, in that order, 40, 25, 0 and 95.
The like results for `Cc1cc(C)c(-c2cc(C(F)(F)F)nn(C)c2=O)cc1NS(=O)(=O)C(F)(F)F` [Compound 71] were, in that order, 40, 0, 0 and 95.
In the case of `Cc1cc(C)c(-c2cc(Cl)nn(C)c2=O)cc1NS(=O)(=O)C(F)(F)F` [Compound 72], the “Plant response rating, Rice” value in test [1] is recorded as 15. Besides, in test [2], the “Plant response rating, Ducksalad” value was 75. Moreover, the “Plant response rating, Barnyardgrass” value in test [3] was determined as 20. The “Plant response rating, Sedge, Umbrella” value in test [4] stood at 85.
As for `Cc1cc(C)c(N(S(C)(=O)=O)S(=O)(=O)C(F)(F)F)cc1-c1ccnn(C)c1=O` [Compound 73], in test [1], the “Plant response rating, Rice” value turned out to be 0. In test [2], the “Plant response rating, Ducksalad” value is given as 0. In test [3], the “Plant response rating, Barnyardgrass” value was found to be 0. Also, in test [4], the “Plant response rating, Sedge, Umbrella” value is 0.
